Data reported in PubChem BioAssay AID686979 (National Center for Advancing Translational Sciences (NCATS), 2013).
Several values for one entry are separate records, joined by “and”; a condition that tells them apart may be missing. Identical values can stand only once. The campaign covered roughly 420,000 compounds. About 50,000 (12%) were called active. The shares of active, inactive and inconclusive entries below differ from those in the screen. Calls come from the whole dose curve; as a rule, active = well fitted inhibition curve with a large enough effect; inconclusive = small, poorly fitted or top-dose-only effect; inactive = flat fitted curve, though single readings scatter. Potencies of inconclusive entries are doubtful fits and often do not repeat.

assay: qHTS for Inhibitors of human tyrosyl-DNA phosphodiesterase 1 (TDP1): qHTS in cells in presence of CPT; conditions: chicken DT40 Tdp1-/-;hTDP1 cells + 20 nM CPT, ATP luminescence, 48 h; activity change, negative = growth inhibition: at 46.2 µM (top of the series) unless noted; note: nearly all actives have a fitted effect of over 55% in size
How it was run: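 Chicken DT40 Tdp1-/- cells complemented with human TDP1, 400 cells/well, exposed to compounds plus 20 nM camptothecin for at least 48 h at 37 C; viability read as ATP content by CellTiter-Glo luminescence.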
% is set by controls: 0 for no effect and ±100 for the full control effect; potency is the fitted concentration of half-maximal effect; tags give direction and shape of the fitted curve.

SMILES	activity change, negative = growth inhibition	Potency
COc1ccc(NC(=O)c2cc(-c3ccc(OC)c(OC)c3)on2)cc1OC	inactive: -7.27%	
O=C(Nn1cnc2ccccc2c1=O)c1cccc(Cl)c1	inactive: -2.1%	
Cc1cccc(C)c1NC(=O)C1CCCN1C(=O)OC(C)(C)C (centres undefined)		active: 11.6 µM
CN(C(=O)c1ccc(NC(=O)Cc2ccc(NC(=O)C3CCCN(C(=O)C4CCC4)C3)cc2)cc1)C1CCCC1 (centres undefined)		inconclusive: 20.6 µM [inhibitor, single point]
NCCCCCCCCCCNS(=O)(=O)c1cccc2c(Cl)cccc12		inconclusive: 29.9 µM [inhibitor, single point] and inconclusive: 25.1 µM [inhibitor, single point]
COc1ccc(NC(=O)CSc2nc3ccccc3n2Cc2cccc(OC)c2)cc1		inconclusive: 29.1 µM [inhibitor, single point]
NCCOc1cnn(-c2ccccc2Cl)c(=O)c1Cl	inactive: -1.1%	
Cc1cc(C(=O)O[C@H]2[C@H](Cc3ccccc3)NS(=O)(=O)[C@H]3C[C@@H]4C=C[C@]23O4)ccc1[N+](=O)[O-]		inconclusive: 29.1 µM [inhibitor, single point]
CC(C)(C)c1ccc(C(=O)O)c(C(=O)c2ccc(C(=O)O)cc2)c1	inactive: -16.1%	
O=c1c2[nH]c3cccc(Cl)c3c2ncn1Cc1ccco1	inactive: -0.628%	
COc1ccc2c(CNCCc3ccco3)c(C(=O)O)n(Cc3ccccc3)c2c1	inactive: -0.21%	
N#Cc1cnn(-c2ccc([N+](=O)[O-])cc2[N+](=O)[O-])c1N		active: 13 µM
CN(Cc1ccc(F)cc1)C(=O)COc1ccccc1-c1ccccc1		inconclusive: 25.9 µM [inhibitor, single point]
CCOC(=O)c1sc(Nc2nc3ccc(OC)cc3s2)cc1C		inconclusive: 29.1 µM [inhibitor, single point]
Cc1ccc2cc3c(N)c(C(=O)Nc4c(C)[nH]c(=O)[nH]c4=O)sc3nc2c1	inactive: 18.2%	
O=C(NCc1ccccc1)C1CCN(S(=O)(=O)c2cc([N+](=O)[O-])ccc2Cl)CC1	inconclusive: -31.9% [inhibitor]	
COc1ccc(F)c(-c2nc(CN3CCC(c4ccccc4)CC3)c(C)o2)c1		inconclusive: 16.4 µM [inhibitor, partial curve]
CCc1sc(Nc2cccc(C)c2C)nc1-c1cc2cccc(OC)c2oc1=O		inconclusive: 23.1 µM [inhibitor, single point]
O=C1C2C3C=CC(C4CC34)C2C(=O)N1CCCCN1CCN(c2ccc(F)cc2)CC1 (centres undefined)		inconclusive: 23.1 µM [inhibitor, single point]
